The other results are listed elsewhere or left out.
How the values were obtained:
Experiment in all cases: glycan array binding signal (z-score within array); higher = stronger binding
Conditions in all cases: glycan notation: IUPAC condensed, linker removed
Glc(b1-4)Glc = molecular target: Glc(b1-4)Glc
Outline: (§1)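 Arrays were curated from the Consortium for Functional Glycomics database, 3228 in total, and kept only where the protein sequence was available. Binding is expressed as a within-array Z-score. This score was averaged across arrays of the same protein sequence at different concentrations or buffers and across linkers, and negative values can be read as non-binding.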

Glc(b1-6)Glc = molecular target: Glc(b1-6)Glc
Outline: as §1

GlcA(b1-3)Gal = molecular target: GlcA(b1-3)Gal
Outline: as §1

GlcA(b1-3)GlcNAc = molecular target: GlcA(b1-3)GlcNAc
Outline: as §1

GlcA(b1-6)Gal = molecular target: GlcA(b1-6)Gal
Outline: as §1

[1] = molecular target: GlcNAc(a1-3)Gal(b1-4)GlcNAc
Outline: as §1

[2] = molecular target: GlcNAc(a1-4)Gal(b1-3)GlcNAc
Outline: as §1

[3] = molecular target: GlcNAc(a1-4)Gal(b1-4)GalNAc
Outline: as §1

[4] = molecular target: GlcNAc(a1-4)Gal(b1-4)GlcNAc
Outline: as §1

[5] = molecular target: GlcNAc(a1-4)Gal(b1-4)GlcNAc(b1-3)Gal(b1-4)Glc
Outline: as §1

[6] = molecular target: GlcNAc(a1-4)Gal(b1-4)GlcNAc(b1-3)Gal(b1-4)GlcNAc
Outline: as §1

[7] = molecular target: GlcNAc(a1-4)Gal(b1-4)GlcNAc(b1-3)Gal(b1-4)GlcNAc(b1-3)Gal(b1-4)GlcNAc
Outline: as §1

[8] = molecular target: GlcNAc(a1-4)Gal(b1-4)GlcNAc(b1-3)Gal(b1-4)[Fuc(a1-3)]GlcNAc(b1-3)Gal(b1-4)[Fuc(a1-3)]GlcNAc
Outline: as §1

[9] = molecular target: GlcNAc(a1-6)Gal(b1-4)GlcNAc
Outline: as §1

[10] = molecular target: GlcNAc(b1-2)Gal(b1-3)GalNAc
Outline: as §1

[11] = molecular target: GlcNAc(b1-2)Man(a1-3)[GlcNAc(b1-2)Man(a1-6)]Man(b1-4)GlcNAc(b1-4)GlcNAc
Outline: as §1

[12] = molecular target: GlcNAc(b1-2)Man(a1-3)[GlcNAc(b1-2)Man(a1-6)]Man(b1-4)GlcNAc(b1-4)[Fuc(a1-6)]GlcNAc
Outline: as §1

[13] = molecular target: GlcNAc(b1-2)Man(a1-3)[GlcNAc(b1-4)][GlcNAc(b1-2)Man(a1-6)]Man(b1-4)GlcNAc(b1-4)GlcNAc
Outline: as §1

[14] = molecular target: GlcNAc(b1-2)[GlcNAc(b1-4)]Man(a1-3)[GlcNAc(b1-2)Man(a1-6)]Man(b1-4)GlcNAc(b1-4)GlcNAc
Outline: as §1

[15] = molecular target: GlcNAc(b1-2)[GlcNAc(b1-4)]Man(a1-3)[GlcNAc(b1-4)][GlcNAc(b1-2)Man(a1-6)]Man(b1-4)GlcNAc(b1-4)GlcNAc
Outline: as §1

[16] = molecular target: GlcNAc(b1-2)[GlcNAc(b1-4)]Man(a1-3)[GlcNAc(b1-4)][GlcNAc(b1-2)[GlcNAc(b1-6)]Man(a1-6)]Man(b1-4)GlcNAc(b1-4)GlcNAc
Outline: as §1

[17] = molecular target: GlcNAc(b1-2)[GlcNAc(b1-6)]Man(a1-6)[GlcNAc(b1-2)Man(a1-3)]Man(b1-4)GlcNAc(b1-4)GlcNAc
Outline: as §1

[18] = molecular target: GlcNAc(b1-2)[GlcNAc(b1-6)]Man(a1-6)[GlcNAc(b1-2)Man(a1-3)][GlcNAc(b1-4)]Man(b1-4)GlcNAc(b1-4)GlcNAc
Outline: as §1

GlcNAc(b1-3)Gal = molecular target: GlcNAc(b1-3)Gal
Outline: as §1

[19] = molecular target: GlcNAc(b1-3)Gal(b1-3)GalNAc
Outline: as §1

GlcNAc(b1-3)Gal(b1-4)Glc = molecular target: GlcNAc(b1-3)Gal(b1-4)Glc
Outline: as §1

[20] = molecular target: GlcNAc(b1-3)Gal(b1-4)GlcNAc
Outline: as §1

[21] = molecular target: GlcNAc(b1-3)Gal(b1-4)GlcNAc(b1-3)Gal(b1-4)GlcNAc
Outline: as §1

GlcNAc(b1-3)GalNAc = molecular target: GlcNAc(b1-3)GalNAc
Outline: as §1

GlcNAc(b1-3)Man = molecular target: GlcNAc(b1-3)Man
Outline: as §1

[22] = molecular target: GlcNAc(b1-3)[GlcNAc(b1-4)][GlcNAc(b1-6)]GlcNAc
Outline: as §1

[23] = molecular target: GlcNAc(b1-3)[GlcNAc(b1-6)]Gal(b1-4)GlcNAc
Outline: as §1

[24] = molecular target: GlcNAc(b1-3)[GlcNAc(b1-6)]GalNAc
Outline: as §1

[25] = molecular target: GlcNAc(b1-3)[GlcNAc(b1-6)]GlcNAc(b1-4)GlcNAc
Outline: as §1

[26] = molecular target: GlcNAc(b1-4)Gal(b1-4)GlcNAc
Outline: as §1

GlcNAc(b1-4)GlcNAc = molecular target: GlcNAc(b1-4)GlcNAc
Outline: as §1

[27] = molecular target: GlcNAc(b1-4)GlcNAc(b1-4)GlcNAc
Outline: as §1

[28] = molecular target: GlcNAc(b1-4)GlcNAc(b1-4)GlcNAc(b1-4)GlcNAc(b1-4)GlcNAc
Outline: as §1

B1: F17aG (Escherichia coli), Q99003 (protein)
chain: MTNFYKVFLAVFILVCCNISQAAVSFIGSTENDVGPSLGSYSRTHAMDNLPFVYDTRNKIGYQNANVWHISKGFCVGLDGKVDLPVVGSLDGQSIYGLTEEVGLLIWMGDTKYSRGTAMSGNSWENVFSGWCVGANTASTQGLSVRVTPVILKRNSSARYSVQKTSIGSIRMRPYNGSSAGSVQTTVNFSLNPFTLNDTVTSCRLLTPSAVNVSLAAISAGQLPSSGDEVVAGTTSLKLQCDAGVTVWATLTDATTPSNRSDILTLTGASTATGVGLRIYKNTDSTPLKFGPDSPVKGNENQWQLSTGTETSPSVRLYVKYVNTGEGINPGTVNGISTFTFSYQ
Glc(b1-4)Glc
  glycan array binding signal (z-score): -0.223
Glc(b1-6)Glc
  glycan array binding signal (z-score): -0.214
GlcA(b1-3)Gal
  glycan array binding signal (z-score): -0.244
GlcA(b1-3)GlcNAc
  glycan array binding signal (z-score): -0.177
GlcA(b1-6)Gal
  glycan array binding signal (z-score): -0.247
[1]
  glycan array binding signal (z-score): -0.253
[2]
  glycan array binding signal (z-score): -0.089
[3]
  glycan array binding signal (z-score): -0.148
[4]
  glycan array binding signal (z-score): -0.139
[5]
  glycan array binding signal (z-score): -0.126
[6]
  glycan array binding signal (z-score): -0.182
[7]
  glycan array binding signal (z-score): -0.151
[8]
  glycan array binding signal (z-score): -0.137
[9]
  glycan array binding signal (z-score): -0.243
[10]
  glycan array binding signal (z-score): 0.063
[11]
  glycan array binding signal (z-score): -0.203
[12]
  glycan array binding signal (z-score): -0.17
[13]
  glycan array binding signal (z-score): -0.117
[14]
  glycan array binding signal (z-score): -0.177
[15]
  glycan array binding signal (z-score): -0.161
[16]
  glycan array binding signal (z-score): -0.177
[17]
  glycan array binding signal (z-score): -0.16
[18]
  glycan array binding signal (z-score): -0.156
GlcNAc(b1-3)Gal
  glycan array binding signal (z-score): 3.9
[19]
  glycan array binding signal (z-score): 0.307
GlcNAc(b1-3)Gal(b1-4)Glc
  glycan array binding signal (z-score): 8.79
[20]
  glycan array binding signal (z-score): 4.77
[21]
  glycan array binding signal (z-score): 0.427
GlcNAc(b1-3)GalNAc
  glycan array binding signal (z-score): 0.898
GlcNAc(b1-3)Man
  glycan array binding signal (z-score): -0.036
[22]
  glycan array binding signal (z-score): -0.1
[23]
  glycan array binding signal (z-score): 5.68
[24]
  glycan array binding signal (z-score): 1.32
[25]
  glycan array binding signal (z-score): 2.15
[26]
  glycan array binding signal (z-score): 0.526
GlcNAc(b1-4)GlcNAc
  glycan array binding signal (z-score): -0.171
[27]
  glycan array binding signal (z-score): -0.03
[28]
  glycan array binding signal (z-score): -0.231

Source: the supplement of paper PMC8728848
